From the supplement of paper PMC12645437, “Orthogonal IMiD-Degron Pairs Induce Selective Protein Degradation in Cells” (ACS Chemical Biology, 2025) come the findings set out here.

This is one part of the list.

The labels stand for the following.
B1: Q9UKT9 (peptide)
chain: FSCDVCGAWFTQKGNLLRHIKL
B2: Q9UKT9 (peptide)
chain: FQCEICGANFTQKGNLLRHIKL
B3: Q9UKT9 (peptide)
chain: FWCDQCGAAFTQKGNLLRHIKL
B4: Q9UKT9 (peptide)
chain: FACNQCGRHFTQKGNLLRHIKL
B5: Q9UKT9 (peptide)
chain: FQCNVCGAYFTQKGNLLRHIKL
B6: Q9UKT9 (peptide)
chain: FNCEQCGADFTQKGNLLRHIKL
B7: Q9UKT9 (peptide)
chain: FECDICGAAFTQKGNLLRHIKL
B8: Q9UKT9 (peptide)
chain: FKCNICGALFTQKGNLLRHIKL
B9: Q9UKT9 (peptide)
chain: LLCNQCGFACTQKGNLLRHIKL
B10: Q9UKT9 (peptide)
chain: FYCEICGAPFTQKGNLLRHIKL
B11: Q9UKT9 (peptide)
chain: LVCPICGFVCTQKGNLLRHIKL
B12: Q9UKT9 (peptide)
chain: FHCNICGAPFTQKGNLLRHIKL
B13: Q9UKT9 (peptide)
chain: FACEICGRIFTQKGNLLRHIKL
B14: Q9UKT9 (peptide)
chain: LWCNQCGFWCTQKGNLLRHIKL
B15: Q9UKT9 (peptide)
chain: FTCPICGHWFTQKGNLLRHIKL
B16: Q9UKT9 (peptide)
chain: LVCNQCGFPCTQKGNLLRHIKL
B17: Q9UKT9 (peptide)
chain: FKCPICGHEFTQKGNLLRHIKL
B18: Q9UKT9 (peptide)
chain: FSCNQCGRAFTQKGNLLRHIKL
B19: Q9UKT9 (peptide)
chain: FKCPICGRSFTQKGNLLRHIKL
B20: Q9UKT9 (peptide)
chain: FMCNQCGHCFTQKGNLLRHIKL
B21: Q9UKT9 (peptide)
chain: FQCEQCGAPFTQKGNLLRHIKL
B22: Q9UKT9 (peptide)
chain: FQCEICGAVFTQKGNLLRHIKL
B23: Q9UKT9 (peptide)
chain: FACPQCGAAFTQKGNLLRHIKL
B24: Q9UKT9 (peptide)
chain: FRCPVCGAMFTQKGNLLRHIKL
B25: Q9UKT9 (peptide)
chain: FKCDICGAPFTQKGNLLRHIKL
B26: Q9UKT9 (peptide)
chain: FRCEICGHSFTQKGNLLRHIKL
B27: Q9UKT9 (peptide)
chain: FLCNICGADFTQKGNLLRHIKL
B28: Q9UKT9 (peptide)
chain: FECEICGHQFTQKGNLLRHIKL
B29: Q9UKT9 (peptide)
chain: FNCNICGAQFTQKGNLLRHIKL
B30: Q9UKT9 (peptide)
chain: FGCEVCGAKFTQKGNLLRHIKL
B31: Q9UKT9 (peptide)
chain: FSCPICGREFTQKGNLLRHIKL
B32: Q9UKT9 (peptide)
chain: FFCEICGAVFTQKGNLLRHIKL
B33: Q9UKT9 (peptide)
chain: FECPICGHGFTQKGNLLRHIKL
B34: Q9UKT9 (peptide)
chain: FLCEICGRKFTQKGNLLRHIKL
B35: Q9UKT9 (peptide)
chain: FTCNQCGAMFTQKGNLLRHIKL
B36: Q9UKT9 (peptide)
chain: FCCDVCGAVFTQKGNLLRHIKL
B37: Q9UKT9 (peptide)
chain: FHCNQCGHKFTQKGNLLRHIKL
B38: Q9UKT9 (peptide)
chain: FCCPICGRRFTQKGNLLRHIKL
B39: Q9UKT9 (peptide)
chain: FRCPICGAAFTQKGNLLRHIKL
B40: Q9UKT9 (peptide)
chain: FVCEICGAFFTQKGNLLRHIKL
B41: Q9UKT9 (peptide)
chain: FLCPICGHSFTQKGNLLRHIKL
B42: Q9UKT9 (peptide)
chain: FMCEQCGARFTQKGNLLRHIKL
B43: Q9UKT9 (peptide)
chain: FRCSVCGHHFTQKGNLLRHIKL
B44: Q9UKT9 (peptide)
chain: FLCDQCGANFTQKGNLLRHIKL
B45: Q9UKT9 (peptide)
chain: FHCPICGAAFTQKGNLLRHIKL
B46: Q9UKT9 (peptide)
chain: FICDICGARFTQKGNLLRHIKL
B47: Q9UKT9 (peptide)
chain: FLCDQCGAEFTQKGNLLRHIKL
B48: Q9UKT9 (peptide)
chain: FMCNICGAYFTQKGNLLRHIKL
B49: Q9UKT9 (peptide)
chain: FFCPICGHCFTQKGNLLRHIKL
B50: Q9UKT9 (peptide)
chain: LNCPICGFKCTQKGNLLRHIKL
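Further: jurkat cells carrying a lentiviral library of mutant zinc finger degrons fused to EGFP plus mCherry, mCherry+ cells FACS sorted, degron abundance counted by next-generation sequencing.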

The test addresses no compound (DMSO). Nature of the test: log2 fold change of degron read counts, EGFP-low vs EGFP+ sorted cells; higher = lower degron-EGFP level without compound (poor expression or instability). As to conditions: compound: DMSO control; 18 h.
For B1, the “log2 fold change of degron read counts” value was -1.68. With B2 the figure was -1.13. Under B3 stands -0.506. Take B4: the “log2 fold change of degron read counts” value was -0.0468. With B5 the figure was -0.191; with B6, -2.38; with B7, -2.01. With B8 the figure was -1.32; with B9, 0.246. With B10 the figure was -0.689. As for B11, the “log2 fold change of degron read counts” value stood at 1.31. Under B12 stands -0.0573; under B13, -0.412; under B14, 2.8.

As to B15, the “log2 fold change of degron read counts” value was -0.136. With B16 the figure was 0.368; with B17, -0.623.

As to B18, the “log2 fold change of degron read counts” value was -0.785. For B19, the “log2 fold change of degron read counts” value is -0.0858. Under B20 stands -0.242; under B21, -1.24. As for B22, the “log2 fold change of degron read counts” value is -1.92. For B23, the “log2 fold change of degron read counts” value is -0.791. With B24 the figure was -0.0776; with B25, -0.722; with B26, -0.973.

For the sequence B27, the “log2 fold change of degron read counts” value is -1.7. Under B28 stands -2.81. With B29 the figure was -1.14. With B30 the figure was -1.5; with B31, -0.429.

Take B32: the “log2 fold change of degron read counts” value is -0.206. For the sequence B33, the “log2 fold change of degron read counts” value was -0.793. Under B34 stands -1.7; under B35, -0.447; under B36, -1.34. For B37, the “log2 fold change of degron read counts” value came out at 0.157. Under B38 stands -0.463; under B39, -0.41; under B40, -1.04. Under B41 stands -0.743; under B42, -0.937. As for B43, the “log2 fold change of degron read counts” value is -0.201.

Consider B44, for which the “log2 fold change of degron read counts” value is -2.79. On to B45, for which the “log2 fold change of degron read counts” value was -0.993.

Consider B46, for which the “log2 fold change of degron read counts” value was -1.38. With B47 the figure was -3.39. Under B48 stands 0.167; under B49, 0.187. Under B50 stands 0.187.
